Out of some 52,000 compounds screened, about 4,300 (8.3%) were called active. Cut-off read from the data, not from the text of the source: active = survival mostly below about 52% (no sharp cut-off); inactive = mostly above about 56%. This is one part of the list.
System: DeltatarO mutant
Assay: growth inhibition of S. aureus wild type versus tarO mutant, primary screen, teichoic acid synthesis inhibitors, RN4220, OD600 (AID 463173)
Conditions: OD600, 18 h, stronger effect = lower value, screened at 18.75 µg/mL (by protocol)

Question: How did the survival turn out when CC1Cc2ccccc2N1C(=O)CSc1nnc(-c2cccc(Cl)c2)o1 (stereo unspecified) was run?
Answer: Its survival is active: 34%.

Question: With CCOc1ccc(CCNC(=O)c2cc3c(=O)n(C)c4ccccc4c3n2C)cc1 as the compound, how does the survival read?
Answer: Its survival is inactive: 71%.

Question: With O=C(CCc1ccccc1)NCc1ccc2c(c1)CCN2C(=O)c1ccc(Cl)cc1 as the compound, how does the survival read?
Answer: The survival was inactive: 77%.

Question: Which survival does the source give for Cc1ccc(-n2c(=O)c3cccnc3n2CC(=O)NCc2ccc(F)cc2)cc1C here?
Answer: The survival was inactive: 43%.

Question: O=C(c1ccccc1)N1CC(=O)N2CCc3ccccc3C2C1 (stereo unspecified) was tested. Which survival did it give?
Answer: Its survival is inactive: 96%.

Question: Which survival does the source give for Cc1ccc(CNC(=O)CN2CCCN(Cc3ccc(F)cc3)S2(=O)=O)cc1 here?
Answer: The survival was inactive: 67%.

Question: For CCN(CC)S(=O)(=O)c1ccc2c(c1)N(CC(=O)Nc1c(C)cc(C)cc1C)C(=O)C1CCCN21 (stereo unspecified), which survival is on record?
Answer: Its survival is inactive: 64%.

Question: How did the survival turn out when Cc1cc(C)c(/C=C/c2onc(C)c2S(=O)(=O)N2CCC(C(=O)Nc3ccc(Cl)c(C(F)(F)F)c3)CC2)c(C)c1 was run?
Answer: Its survival is inactive: 67%.

Question: O=C(COc1ccccc1F)Nc1ccc(Cl)c(-c2nc3ccccc3[nH]2)c1 was tested. Which survival did it give?
Answer: Its survival is active: 33%.

Question: How did the survival turn out when COc1ccc(NC(=O)CSc2nccn2Cc2ccco2)cc1OC was run?
Answer: Its survival is inactive: 73%.

Question: For CC1=C(c2ccc(C)c(C)c2)S(=O)(=O)N=C1N1CCC(C(=O)NCc2ccc(Cl)cc2)CC1, which survival is on record?
Answer: Its survival is inactive: 75%.

Question: CCOc1ccc(C=Nc2ccc3c(c2)ncn3C)cc1 was tested. Which survival did it give?
Answer: The survival was inactive: 96%.

Question: With O=C(NCCC1=CCCCC1)c1ccc2c(c1)N(Cc1ccc(Cl)cc1)C(=O)c1ccccc1S2=O (stereo unspecified) as the compound, how does the survival read?
Answer: The survival was inactive: 63%.

Question: How did the survival turn out when COc1ccc(-n2c(=O)c3c(c4cc(OC)ccc4n3C)n(C)c2=O)cc1 was run?
Answer: The survival was inactive: 80%.

Question: CCOc1ccc(NC(=O)Cn2cc(C(=O)c3ccc(CC)cc3)c(=O)c3ccc(C)nc32)cc1 was tested. Which survival did it give?
Answer: Its survival is inactive: 107%.

Question: Which survival does the source give for CCOC(=O)c1cccc(NC(=O)c2cnc(N3CCCCC3)c3ccccc23)c1 here?
Answer: Its survival is inactive: 99%.

Question: With Cc1noc2ncnc(NCc3ccccc3Cl)c12 as the compound, how does the survival read?
Answer: Its survival is inactive: 123%.

Question: With CCOc1ccc(NC(=O)C(=O)NCCc2csc(-c3ccc(C)cc3)n2)cc1 as the compound, how does the survival read?
Answer: The survival was inactive: 81%.

Question: Which survival does the source give for COc1ccc(NC(=O)c2sc3nc(C)c(C(=O)Nc4ccc(C)cc4C)c(-c4cccs4)c3c2N)cc1 here?
Answer: Its survival is inactive: 81%.

Question: COc1ccc(OC)c(NC(=O)c2sc3nc4c(cc3c2N)CCCCCC4)c1 was tested. Which survival did it give?
Answer: The survival was inactive: 56%.

Question: For Cc1ccc(C)c(N2CCN(C(c3ccc(F)cc3)c3nnc(-c4ccccc4)o3)CC2)c1 (stereo unspecified), which survival is on record?
Answer: The survival was active: 16%.

Question: For CCN(Cc1ccccc1)C(=O)Cn1c(=O)oc2cc(S(=O)(=O)N3CCCCCC3)ccc21, which survival is on record?
Answer: The survival was inactive: 98%.

Question: Cc1ccccc1CSc1cn(CC(=O)N2CCCC2)c2ccccc12 was tested. Which survival did it give?
Answer: Its survival is inactive: 58%.

Question: With Cc1cccc(Cn2c(=O)n(-c3ccc(Cl)c(Cl)c3)c(=O)c3c(C)c(C)sc32)c1 as the compound, how does the survival read?
Answer: Its survival is inactive: 103%.

Question: COc1ccccc1NC(=O)c1nc(SCc2ccc(F)cc2)ncc1Cl was tested. Which survival did it give?
Answer: The survival was inactive: 77%.

Question: Which survival does the source give for CCc1ccc(N2CCn3c2nc2c3c(=O)n(CCc3ccccc3)c(=O)n2C)cc1 here?
Answer: Its survival is inactive: 82%.

Question: How did the survival turn out when Cc1ccc2nc(NC(=O)CSc3nccn3Cc3ccccc3)sc2c1 was run?
Answer: Its survival is active: 37%.

Question: Cc1oc2c(c1C(=O)Nc1ccc(C(=O)O)cc1)CCCC2 was tested. Which survival did it give?
Answer: Its survival is inactive: 92%.

Question: Which survival does the source give for CCOCCc1nnc(NC(=O)C(=O)c2cc(C)n(-c3cccc(Cl)c3)c2C)s1 here?
Answer: Its survival is inactive: 55%.

Question: Which survival does the source give for COc1cc(NC(=O)c2cc(-c3cccc(Cl)c3)on2)c(OC)cc1Cl here?
Answer: The survival was inactive: 61%.

Question: Clc1ccc(-c2nc3ccccn3c2Nc2ccc3c(c2)OCCO3)s1 was tested. Which survival did it give?
Answer: The survival was inactive: 87%.

Question: For Cc1ccc(N(CC(=O)N2CCN(c3cc(Cl)ccc3C)CC2)S(=O)(=O)c2c(C)noc2C)cc1, which survival is on record?
Answer: Its survival is inactive: 74%.

Question: For COc1cc(-c2nnn(CC(=O)NCc3ccccc3)n2)cc(OC)c1OC, which survival is on record?
Answer: Its survival is inactive: 78%.

Question: Cc1cnc2c(c1SCC(=O)NCc1ccc(F)cc1)c(=O)n(C)c(=O)n2C was tested. Which survival did it give?
Answer: Its survival is inactive: 88%.

Question: How did the survival turn out when c1ccc2c(c1)ncn2-c1ncnc2sc3c(c12)CCCC3 was run?
Answer: The survival was inactive: 82%.

Question: For Cc1cccc(N2CCN(c3ncnc4c3c(-c3ccccc3)cn4-c3ccccc3)CC2C)c1 (stereo unspecified), which survival is on record?
Answer: The survival was inactive: 90%.

Question: CCOc1ccc(-c2cc(C(=O)N3CCN(c4ccc(C)cc4)C(C)C3)c3ccccc3n2)cc1 (stereo unspecified) was tested. Which survival did it give?
Answer: Its survival is inactive: 94%.

Question: For COc1ccc(-c2nnn(CC(=O)N(c3ccccc3)C(C(=O)NC3CCCC3)c3ccco3)n2)cc1 (stereo unspecified), which survival is on record?
Answer: The survival was inactive: 65%.

Question: With CCC(=O)N1CCc2cc(S(=O)(=O)NCCC(=O)Nc3ccc(OC)c(OC)c3)ccc21 as the compound, how does the survival read?
Answer: Its survival is inactive: 88%.

Question: CCOC(=O)c1oc2ccccc2c1CN(C)CCc1ccccc1 was tested. Which survival did it give?
Answer: The survival was inactive: 70%.

Question: COC(=O)/C=C\c1cc(Br)ccc1C#N was tested. Which survival did it give?
Answer: The survival was inactive: 87%.

Question: Cc1ccc(CNC(=O)c2cccc(-n3cnc4cccnc43)c2)cc1 was tested. Which survival did it give?
Answer: The survival was inactive: 69%.

Question: COc1cccc(C(=O)Nc2c3c(nn2-c2ccc(Cl)cc2)CS(=O)(=O)C3)c1 was tested. Which survival did it give?
Answer: The survival was inactive: 82%.

Question: How did the survival turn out when CCc1ccc(NC(=O)CCNS(=O)(=O)c2ccc3c(c2)CCCC(=O)N3)cc1 was run?
Answer: Its survival is inactive: 94%.

Question: CCN(CC)C(C)C(=O)Nc1c(C)cccc1C (stereo unspecified) was tested. Which survival did it give?
Answer: Its survival is inactive: 81%.

Question: For COc1ccc(NC(=O)c2oc3ccc(S(=O)(=O)N(C)C4CCCCC4)cc3c2C)cc1, which survival is on record?
Answer: Its survival is inactive: 90%.

Question: With CCOC(=O)c1scc(-c2ccccc2)c1S(=O)(=O)N1CCN(c2ccccc2OC)CC1 as the compound, how does the survival read?
Answer: The survival was inactive: 94%.

Question: How did the survival turn out when Cc1ccc(CNC(=O)CSc2nc3n[nH]c(C)c3c(=N)n2-c2cccc(C)c2)cc1 was run?
Answer: Its survival is inactive: 128%.

Question: How did the survival turn out when CC1(C)Cc2c(c(-c3ccccc3)[nH]c(=O)c2C#N)CO1 was run?
Answer: The survival was inactive: 95%.

Question: COc1ccc(-c2noc(-c3ccc(N4CCC(C)CC4)c([N+](=O)[O-])c3)n2)cc1OC was tested. Which survival did it give?
Answer: Its survival is inactive: 59%.

Question: O=C(NCCc1csc2nc(-c3cccc(F)c3)nn12)c1ccc(Br)o1 was tested. Which survival did it give?
Answer: Its survival is inactive: 76%.

Question: How did the survival turn out when CCOc1ccc(NC(=O)Cn2cc(S(=O)(=O)N3CCN(c4ccccc4F)CC3)c3ccccc3c2=O)cc1 was run?
Answer: Its survival is inactive: 89%.

Question: For CCCCNc1nc2c(c(=O)n(Cc3ccc(Cl)c(Cl)c3)c(=O)n2C)n1C, which survival is on record?
Answer: Its survival is active: -10%.

Question: Which survival does the source give for Cc1cccc(-c2c3c(=O)n(C)c(=O)n(C)c3c3cnc4ccccc4n23)c1 here?
Answer: Its survival is inactive: 84%.

Question: Which survival does the source give for O=C(Nc1c(Cl)cccc1Cl)c1cc(-c2cccc(O)c2)on1 here?
Answer: Its survival is inactive: 68%.

Question: How did the survival turn out when Cc1c(NC(=O)Nc2ccc(C#N)cc2)c(=O)n(-c2ccccc2)n1C was run?
Answer: Its survival is inactive: 122%.
